Some of the results follow.
These sequences were tested on PfHDP1 homeodomain (GST-tagged) (assay: gcPBM binding intensity (ln(normalized median fluorescence intensity)); higher = stronger DNA binding).
In short: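 For binding intensity, the highest Masliner-normalised natural-log median intensity across replicate spots of either probe orientation was taken. Protein bound to the array was stained with Alexa488 anti-GST antibody and scanned at 488 nm. The protein, GST-tagged P. falciparum DNA-binding domains from E. coli at about 25 μg on average, had been applied for 1 h to an Agilent 4 × 180k array of primer-extended double-stranded 36-bp intergenic genomic probes and negative controls.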
With “AGAAAAGAAATTAGTTGTACTCTGATGAATTATCCT [XGTACX_site6284]” the “gcPBM binding intensity (ln)” value was 6.06.
For “TAATAATAGTGAGAGTGTACTTTAAATAAAATATAT [XGTACX_site2850]”, the “gcPBM binding intensity (ln)” value was 6.52.
“TTCTATATATATATAGACAAACGATAAAATAAAAAA [GTGCAC_negctrl_site142]” was tested, and the “gcPBM binding intensity (ln)” value was 6.66.
“TACCCAAAGTTACATACACACTAATATTTACACCAT [CACACA_site4709]” was tested, and the “gcPBM binding intensity (ln)” value was 6.88.
In the case of “GATGTTCATCACTACACACACAAAGAAATATAAATA [CACACA_site7294]”, the “gcPBM binding intensity (ln)” value is reported as 6.57.
In the case of “ATATGAAGTTATATAGTGCACATGTACAACCAAATC [GTGCAC_site9974]”, the “gcPBM binding intensity (ln)” value is reported as 9.89.
For “TGACTTTTTTTTTTTTTTTTTTTTTTTTATCTTTTT [CACACA_negctrl_site481]”, the “gcPBM binding intensity (ln)” value was 5.88.
For “TTATGATTATAACGTTTTGACATTAGGCATATATAT [CACACA_negctrl_site1396]”, the “gcPBM binding intensity (ln)” value was 6.45.
In the case of “TGAAATGATATATAAACACACATATATAAATATGTA [CACACA_site7616]”, the “gcPBM binding intensity (ln)” value is reported as 6.08.
In the case of “AAATATAATTTGCGATGTACACATATATATTTATTT [XGTACX_site1568]”, the “gcPBM binding intensity (ln)” value is reported as 6.43.
For “CAGTTATTTTAATGTGGTACACAATTTTAAAATTAT [XGTACX_site8571]”, the “gcPBM binding intensity (ln)” value was 6.39.
In the case of “AAGAAAAAAAAAAAAAAAAAAAAAAAAAATTTATGA [TGCATGCA_negctrl_site294]”, the “gcPBM binding intensity (ln)” value is reported as 5.71.
In the case of “AATTTTATAAAAAGTAGTACATATCAAACACCTTGA [XGTACX_site2297]”, the “gcPBM binding intensity (ln)” value is reported as 6.63.
“ATATAAAATGAACATAGTACTTTTTATATATTTTAA [XGTACX_site7461]” was tested, and the “gcPBM binding intensity (ln)” value was 5.84.
In the case of “TACCTATACCTATACACACACACACGGAAATAAATA [CACACA_site6750]”, the “gcPBM binding intensity (ln)” value is reported as 7.17.
For “AAAAAAAAAAAAAGTACACACTTTTGCGTACAAGTA [CACACA_site5672]”, the “gcPBM binding intensity (ln)” value was 6.42.
“TATTTATTATATAAATGTACATAATATATGTATGTC [XGTACX_site2815]” was tested, and the “gcPBM binding intensity (ln)” value was 6.41.
In the case of “TGATGGGACATAAATATTGAGATGATCATAAGATAA [TGCATGCA_negctrl_site276]”, the “gcPBM binding intensity (ln)” value is reported as 6.8.
With “TATATCATAAAAAATTGTACATATATATATTATATA [XGTACX_site6726]” the “gcPBM binding intensity (ln)” value was 6.45.
In the case of “AAAGATAATATATGCACACATATAAATATATAAATA [CACACA_site3477]”, the “gcPBM binding intensity (ln)” value is reported as 10.
“GTGTAATTTATTGTGTTGCACTTTTTTTTTTTTTTT [GTGCAC_site9644]” was tested, and the “gcPBM binding intensity (ln)” value was 7.52.
For “AATACAATTTTTAACACACACACAATAATACAGATA [CACACA_site4823]”, the “gcPBM binding intensity (ln)” value was 6.98.
In the case of “TTAATATAGGAATATGCACACATATATACATACATA [CACACA_site8432]”, the “gcPBM binding intensity (ln)” value is reported as 9.95.
“AAGATAGACTCATATGCATGCATTCACATACCAACA [TGCATGCA_site179]” was tested, and the “gcPBM binding intensity (ln)” value was 7.37.
“GGATAAGATGTATATACACACAATTTAAAAAAATAA [CACACA_site910]” was tested, and the “gcPBM binding intensity (ln)” value was 6.66.
“ATAAAATAATTAATGGGTACATAATTAAATAAAGAG [XGTACX_site3309]” was tested, and the “gcPBM binding intensity (ln)” value was 6.97.
In the case of “TTTTAAAAAAAAAAAAAAAAAATTAAAATAATTCAA [TGCATGCA_negctrl_site69]”, the “gcPBM binding intensity (ln)” value is reported as 5.45.
For “AATGTGCCCACGCGTACACACAAAAAAAGAAAAAAA [CACACA_site2003]”, the “gcPBM binding intensity (ln)” value was 6.
In the case of “CATACATAGAAACACACACACACACCCACCCACAAA [CACACA_site494]”, the “gcPBM binding intensity (ln)” value is reported as 7.38.
With “TTTAATTTGTTATACACACACAAAAAAAATTATAAA [CACACA_site3937]” the “gcPBM binding intensity (ln)” value was 6.61.
In the case of “ATTCTATATTTAAATGCATGCACTTTCTATTTTTTT [TGCATGCA_site435]”, the “gcPBM binding intensity (ln)” value is reported as 8.5.
In the case of “TTTTATTTATCTAATTGTACTCATTCTTTTTTGATG [XGTACX_site2876]”, the “gcPBM binding intensity (ln)” value is reported as 6.37.
In the case of “GACACTTTGAAGGGTACATGCAGAAAAAAAAAAAAA [TGCATGCA_site89]”, the “gcPBM binding intensity (ln)” value is reported as 6.27.
In the case of “GCTAAAAGTATATGCACACACATATAGATGCACATA [CACACA_site6868]”, the “gcPBM binding intensity (ln)” value is reported as 10.7.
With “TACTAATATAATAAAAGTACTTAAATAAATATATGT [XGTACX_site2220]” the “gcPBM binding intensity (ln)” value was 6.63.
“TCTTTTTAAATATATACACACCGTGTCTACAGATAC [CACACA_site5784]” was tested, and the “gcPBM binding intensity (ln)” value was 6.53.
With “ACATGATGTCATAAATGTACGCACACATACATAAAC [XGTACX_site1198]” the “gcPBM binding intensity (ln)” value was 6.78.
In the case of “GAACATTTCACACAAAAAAAAAAAAATATATATATA [TGCATGCA_negctrl_site518]”, the “gcPBM binding intensity (ln)” value is reported as 8.79.
With “TTTGCCCAAAAAGGTACACACCACAATGTACATAAA [CACACA_site4599]” the “gcPBM binding intensity (ln)” value was 6.72.
In the case of “TCATATATGGGTAGTATACACACTGTATATTTAGGA [CACACA_site2844]”, the “gcPBM binding intensity (ln)” value is reported as 6.55.
“TTTTATTTAAATACACGTACATAATGTATATATATA [XGTACX_site7160]” was tested, and the “gcPBM binding intensity (ln)” value was 7.4.
For “GTATAAAAGTTATATACACACAACAGAATTACATAT [CACACA_site6212]”, the “gcPBM binding intensity (ln)” value was 6.67.
In the case of “TTTGAAAAAAATTAATGTACATTTGAAATGACATAT [XGTACX_site3902]”, the “gcPBM binding intensity (ln)” value is reported as 6.01.
For “ATACCTTCTTTTATGTTTAATTAATATACTTTTTAT [CACACA_negctrl_site1557]”, the “gcPBM binding intensity (ln)” value was 7.36.
With “AAAAAAAAAAAACACACACACACAAATATATAAAAA [CACACA_site1171]” the “gcPBM binding intensity (ln)” value was 6.77.
For “AATACATACATACATACACACATATAAATATATTAT [CACACA_site7650]”, the “gcPBM binding intensity (ln)” value was 6.96.
For “TGTTTGTAATTATGTATGCACTTTTTTGTATGTGTG [GTGCAC_site9668]”, the “gcPBM binding intensity (ln)” value was 7.52.
“ACATATCTATCGTTTTTAATTGTATATTATTATAAC [TGCATGCA_negctrl_site144]” was tested, and the “gcPBM binding intensity (ln)” value was 6.4.
In the case of TAATGAGCGCTTGTAGTGCATTATATTCAAAAATAT, the “gcPBM binding intensity (ln)” value is reported as 9.19.
“ATATTCTTGTTTAATACACACTGTAGTATTATATAT [CACACA_site4400]” was tested, and the “gcPBM binding intensity (ln)” value was 7.1.
For “AGAAAAAAACAACATGCACACGCACCCACAAAAAAA [CACACA_site7908]”, the “gcPBM binding intensity (ln)” value was 8.3.
“TCCCACTGTTATATTGAAAAAAAAAAAAAAAAAAAA [TGCATGCA_negctrl_site288]” was tested, and the “gcPBM binding intensity (ln)” value was 6.48.
“TCTTGTATATGTTAAAGTACACAACAATATATATAT [XGTACX_site6814]” was tested, and the “gcPBM binding intensity (ln)” value was 8.34.
“AGATAAAATATATATGCACACACATATATATTTCAT [CACACA_site9183]” was tested, and the “gcPBM binding intensity (ln)” value was 9.16.
In the case of “ATTCTATATAAATATACACACATATATAAAATACAT [CACACA_site2293]”, the “gcPBM binding intensity (ln)” value is reported as 6.73.
“TTAATAATTAATATATGTACTGATAAATAACATATA [XGTACX_site3966]” was tested, and the “gcPBM binding intensity (ln)” value was 6.35.
